Among all 360,000 compounds or so, about 520 (0.14%) were called active. The shares of active, inactive and inconclusive entries below differ from those in the screen. Calls come from the whole dose curve; as a rule, active = well fitted inhibition curve with a large enough effect; inconclusive = small, poorly fitted or top-dose-only effect; inactive = no such curve, though single readings can be large or run the other way. Potencies of inconclusive entries are left out as doubtful fits.
Each molecule was assayed against Rap guanine nucleotide exchange factor 3 (Homo sapiens) (UniProt O95398) (assay: qHTS for Antagonist of cAMP-regulated guanine nucleotide exchange factor 3 (EPAC1): primary screen). Settings: EPAC1 GEF assay, Rap1b-BODIPY-GDP exchange fluorescence; series mostly up to 115 µM.
Note: nearly all actives have a fitted effect of over 50% in size.
Potency is the fitted concentration of half-maximal effect; tags give direction and shape of the fitted curve.

UniProt O95398, sequence (O95398 whole entry, looked up): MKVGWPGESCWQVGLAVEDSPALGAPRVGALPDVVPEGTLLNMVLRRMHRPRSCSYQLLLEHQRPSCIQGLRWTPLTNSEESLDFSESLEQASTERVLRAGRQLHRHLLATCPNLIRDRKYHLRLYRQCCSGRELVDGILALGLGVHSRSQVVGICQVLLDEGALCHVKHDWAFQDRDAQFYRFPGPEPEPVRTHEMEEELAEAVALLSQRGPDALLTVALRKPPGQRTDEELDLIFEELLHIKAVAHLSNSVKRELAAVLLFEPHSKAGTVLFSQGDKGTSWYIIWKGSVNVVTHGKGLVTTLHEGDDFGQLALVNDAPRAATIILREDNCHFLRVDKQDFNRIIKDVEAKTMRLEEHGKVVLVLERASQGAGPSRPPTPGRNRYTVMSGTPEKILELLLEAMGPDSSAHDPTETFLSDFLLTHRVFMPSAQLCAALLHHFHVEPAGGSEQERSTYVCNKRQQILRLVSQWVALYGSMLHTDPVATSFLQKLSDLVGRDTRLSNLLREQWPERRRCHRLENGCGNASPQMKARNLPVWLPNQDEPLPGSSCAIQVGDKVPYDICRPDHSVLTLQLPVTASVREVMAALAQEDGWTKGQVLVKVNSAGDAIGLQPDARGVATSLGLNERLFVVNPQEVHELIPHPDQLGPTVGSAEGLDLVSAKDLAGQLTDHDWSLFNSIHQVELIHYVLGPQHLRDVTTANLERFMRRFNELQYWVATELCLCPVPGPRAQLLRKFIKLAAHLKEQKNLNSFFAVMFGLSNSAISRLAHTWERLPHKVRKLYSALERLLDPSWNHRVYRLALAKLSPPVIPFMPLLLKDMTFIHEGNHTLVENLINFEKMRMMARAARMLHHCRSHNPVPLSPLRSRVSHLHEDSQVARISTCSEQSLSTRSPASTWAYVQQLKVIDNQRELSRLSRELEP

Compound	Potency
CCCCC1=CC2=CC(=O)C(C)(OC(=O)C3CCCC3)C(=O)C2=CO1 (centres undefined)	inconclusive [inhibitor, partial curve]
Nc1ccccc1SCc1cc([N+](=O)[O-])cc2c1OCOC2	inconclusive [inhibitor, partial curve, poor fit]
COc1ccccc1Oc1ccc(N/C=C/C(=O)c2ccco2)cc1	inconclusive [inhibitor, full curve, poor fit]
OCCN1CCN(c2ncnc3c2ncn3[C@H]2CN(Cc3ccncc3)C[C@@H](CO)O2)CC1	inconclusive [inhibitor, single point]
CN1CCc2c(n(CC(O)CNCc3ccccc3)c3ccccc23)C1=O (centres undefined)	inactive
Cc1cc(C)c(S(=O)(=O)Nc2cc(C)on2)c(C)c1	inconclusive [inhibitor, single point]
COc1ccc(Nc2nc(N)c3ccccc3n2)c(OC)c1	inactive
COCCNc1nc(Nc2ccc(C)cc2C)c2sc(-c3ccccc3)cc2n1	inactive
O=C(C[C@@H]1C/C=C\C[C@H](NC(=O)OCC2c3ccccc3-c3ccccc32)C(=O)OC[C@H]2CCCN2C1=O)N[C@H](CO)Cc1ccccc1	inconclusive [inhibitor, single point]
CCC(=O)NC(c1ccc(OC)cc1)c1c(O)ccc2ccccc12 (centres undefined)	inconclusive [inhibitor, partial curve]
COc1ccc(/C(N)=N/OC(=O)CN(C)S(=O)(=O)c2ccccc2)cc1	inconclusive [inhibitor, full curve]
COc1ccc(NC(=O)c2cccc(F)c2)cc1Cl	inconclusive [inhibitor, single point]
CCOC(=O)N/N=C/c1cccnc1	inconclusive [inhibitor, partial curve, poor fit]
N/C(Cc1ccc([N+](=O)[O-])cc1)=N\OC(=O)c1ccc2ccccc2c1	inconclusive [inhibitor, partial curve]
Cc1ccccc1OCC(=O)Nc1ccccc1NC(=O)c1ccco1	inconclusive [inhibitor, partial curve, poor fit]
COc1ccc(NC(=O)COC(=O)c2cccc(S(=O)(=O)N3CCCCC3)c2)c(OC)c1	inconclusive [inhibitor, full curve, poor fit]
O=S(=O)(Nc1cc(Sc2ncn[nH]2)c(O)c2ccccc12)c1ccccc1	inconclusive [inhibitor, full curve]
Nc1nc(SCC(=O)c2ccc(F)cc2)n[nH]1	inactive
Cc1ccccc1C(=O)Nc1c(C(=O)N(CCN(C)C)Cc2ccco2)oc2ccccc12	inactive
CC(=O)Nc1ccc(CN2CCCCCC2)cc1	inconclusive [inhibitor, single point]
O=C(Cc1ccccc1)N/N=C/c1cccn1-c1ccc([N+](=O)[O-])cc1	inconclusive [inhibitor, single point]
Cc1ccc(C)c(N2CCN(C(=O)c3ccc4nc(-c5ccco5)c(-c5ccco5)nc4c3)CC2)c1	inconclusive [inhibitor, single point]

Compound	Potency
Cc1ccc(Cn2nnnc2CN2CCC(c3nc4ccc(Cl)cc4[nH]3)CC2)cc1	inconclusive [inhibitor, single point]
CSc1ccccc1OCc1cc(C(=O)NCc2cccc(C)n2)no1	inactive
O=S(=O)(c1cc(F)ccc1F)N1CCC2(CC1)OCCN2S(=O)(=O)c1ccccc1	inconclusive [inhibitor, partial curve, poor fit]
O=S(=O)(c1ccc(NC(=S)N/N=C/c2ccc(O)c(O)c2)cc1)N1CCOCC1	inconclusive [inhibitor, full curve]
Cc1ccccc1C(=O)OCC(=O)NCc1ccco1	inconclusive [inhibitor, partial curve]
O=C(/C(N=Nc1cccc(C(F)(F)F)c1)=C(/O)c1cccs1)C(F)(F)F	inconclusive [inhibitor, full curve]
COc1cc(NC(=S)Nc2ccccn2)cc(OC)c1	inactive
Cc1ccc(C(=O)OCC(=O)Nc2ccccc2N2CCOCC2)cc1	inactive
Cc1cc(-c2csc(N)n2)c(C)n1-c1ccc(Cl)c(Cl)c1	inconclusive [inhibitor, full curve]
O=C(Cc1c[nH]c2ccccc12)OCC(=O)c1ccccc1	inactive
Cc1ccc(-c2nc3n(n2)Cc2ccccc2-3)cc1	inconclusive [inhibitor, single point]
CC1=C(C(=O)OC(C)C)C(c2cccs2)NC(=O)N1 (centres undefined)	inconclusive [inhibitor, single point]
COc1cc(OC)cc(-c2nc3ccccc3c(=O)n2OC(=O)c2ccc(C)c(C)c2)c1	inconclusive [inhibitor, full curve, poor fit]
CCOc1ccc(NC(=O)c2ccc(NC(=O)COC(=O)c3ccc(NC(=O)CC#N)cc3)cc2)cc1	inconclusive [inhibitor, partial curve]
COC(=O)CCNC(=O)Cc1ccc(S(=O)(=O)N2CCCCC2)s1	inconclusive [inhibitor, partial curve, poor fit]
O=C(COC(=O)c1c2c(nc3ccccc13)/C(=C/c1ccco1)CC2)NC1CCCC1	inconclusive [inhibitor, partial curve]
COc1ccccc1N(C1=NCCCS1)S(=O)(=O)c1ccc(C(C)(C)C)cc1	inconclusive [inhibitor, partial curve, poor fit]
S=C(Nc1ccc2nsnc2c1)N1CCCCC1	inconclusive [inhibitor, full curve]
Cc1ccc(-n2c(=O)cc(N3CCCCCC3)[nH]c2=O)cc1	inconclusive [inhibitor, single point]
COC1=C/C(=C/c2c(N)n3nc(-c4ccc(C)cc4)sc3nc2=O)C=CC1=O	inconclusive [inhibitor, full curve]
NC(=O)c1c(NC(=O)c2ccc(F)cc2)sc2c1CCC2	inactive
Cn1nccc1C(=O)NC1CC(C)(C)Cc2c1cnn2-c1ccc(F)cc1 (centres undefined)	inconclusive [inhibitor, partial curve, poor fit]

Compound	Potency
CCCCCN(C(=O)NC(=O)Nc1cccc(C)c1C)S(C)(=O)=O	inconclusive [inhibitor, single point]
CCC(=O)N1CCCC(C)(C(=O)NS(=O)(=O)c2cccs2)C1 (centres undefined)	inactive
Cc1[nH]n(-c2ccc([N+](=O)[O-])cc2)c(=O)c1/C=N/N1CCOCC1	inconclusive [inhibitor, single point]
O=C(/C=C/c1cccc(Cl)c1)OCc1cn2cc(Cl)ccc2n1	inconclusive [inhibitor, full curve, poor fit]
N#Cc1c(Nc2ccccc2)c(/C=N/N=C/c2ccccc2)c[nH]c1=O	inconclusive [inhibitor, partial curve]
CC(=O)Nc1ccc(/C=N/N2C(=O)NC(C)(c3ccc(OC(F)F)cc3)C2=O)cc1 (centres undefined)	inactive
CCCN(CCC)C(=O)c1ccc2c(c1)N(Cc1ccccc1)C(=O)CS2=O (centres undefined)	inconclusive [inhibitor, single point]
Cc1cc(Cn2nc(-c3ccccc3)cc2C(=O)NCc2cccc(C(F)(F)F)c2)on1	inconclusive [inhibitor, partial curve]
COc1ccc(NC(=O)Cn2c(=O)n(CC3CCCO3)c(=O)c3cc(OC)c(OC)cc32)cc1OC (centres undefined)	inconclusive [inhibitor, single point]
CCOC(=O)[C@]12CCCC=C1N(CCC1=CCCCC1)C(=O)[C@H](CC(=O)N1CCCC1)C2	inactive
COc1ccccc1NS(=O)(=O)c1cccc(N=C2N=C(N)c3ccccc32)c1	inconclusive [inhibitor, partial curve]
CC(C)[C@H](N)C(=O)NC[C@H]1CC[C@H](C(=O)N[C@@H](Cc2ccccc2)C(=O)O)CC1	inconclusive [inhibitor, partial curve, poor fit]
COc1ccc(N2CCN(C(=O)C(Cc3ccccc3)NC(=O)c3ccccc3)CC2)cc1 (centres undefined)	inconclusive [inhibitor, partial curve]
Cc1cc2c(cc1S(=O)(=O)C(C)CC(=O)NCc1ccco1)OCC(=O)N2 (centres undefined)	inconclusive [inhibitor, full curve, poor fit]
Cc1[nH]c2ccc3ncccc3c2c1C	inactive
COc1ccc(C(C)(O)c2nc(-c3cc(F)cc(F)c3)cs2)cc1 (centres undefined)	inconclusive [inhibitor, partial curve]
Cc1ccc(NC(=O)C2CCN(S(=O)(=O)c3c(C)noc3/C=C/N(C)C)CC2)cc1	inconclusive [inhibitor, partial curve]
COc1ccc(N/C=C/C(=O)c2ccccc2)cc1	inconclusive [inhibitor, partial curve]
CCOC(=O)N1CCC(NC(=O)c2ccc3c(c2)N(Cc2ccc(F)cc2)CCS3)CC1	inconclusive [inhibitor, partial curve]
COc1ccc(-c2cc3n(n2)CCc2nc4ccccc4n2-3)cc1	inactive
